# Publication PMC12040169 (PLOS Biology, 2025)
# The other results are listed elsewhere or left out.
# Tested on: T1, C. trachomatis L2/434/Bu expressing GFP (CTL2-GFP)
# T1 construct: L2/434/Bu GFP intracellular growth in HeLa cells
# Parameters: species or system HeLa; C. trachomatis total inclusion area by high-content imaging, normalised to DMSO
# Conditions: total inclusion area; 28.5 h, 10 µM; inhibitor
# How it was run: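 Host cell viability was gauged from Hoechst-stained nuclei counts, while chlamydial growth was taken from total inclusion area and inclusion number per well. Cells were fixed and imaged by high-content microscopy once bulk GFP and resorufin fluorescence had been measured.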
row,SMILES,% of control remaining
1,CCC(=O)N1CCN(c2ccccc2NC(=O)c2ccc(C#N)cc2F)CC1 [CBK270110],73.8569
2,COc1ccc(-c2cn3ccnc3c(N3CCCCC3CO)n2)cc1OC (stereo not shown) [CBK066230],88.908
3,O=S(=O)(c1ccc(Cl)s1)N1CCN(c2ccccn2)CC1 [CBK270305],80.2879
4,CCS(=O)(=O)Nc1cc(C(F)(F)F)ccc1Cl [CBK111339],91.3414
5,O=C(O)C[C@@H]1CCN(C(=O)Nc2ccccc2)C[C@@H]1CCN1CCCCC1 [CBK288782],102.74
6,NS(=O)(=O)c1ccc(NC(=O)c2ccc(NC(=O)C3COc4ccccc4O3)cc2)cc1 (stereo not shown) [CBK266573],114.834
7,CCN1C(=O)CC2(C1=O)C(=O)N(Cc1cccc(CN3C(=O)CCC3=O)c1)c1ccccc12 (stereo not shown) [CBK075508],104.462
8,Cc1nc2ccc(C(=O)NC(C)(C)CN3CCCC(C)C3)cc2[nH]1 (stereo not shown) [CBK282629],139.826
9,CCOC(=O)Cn1ccc2ccnc(-c3cccs3)c21 [CBK285200],99.6836
10,COc1ccccc1-c1nccnc1NCc1cc(OC)c(OC)c(OC)c1 [CBK036642],130.784
11,COc1cc(C2CC(=O)N(c3cc(C)on3)C(=O)C2)cc(OC)c1OC [CBK006810],103.34
12,CC(=O)Nc1cc(C(=O)CSc2nnnn2-c2ccc(C)c(C)c2)ccc1O [CBK295143],107.599
13,CCOc1ccc2nc(SCC(=O)Nc3c(C)n(C)n(-c4ccccc4)c3=O)sc2c1 [CBK267229],97.686
14,O=C(Nc1cc(Cl)nc(Cl)c1)N(Cc1ccc(-c2ccccc2)cc1)CC1CCNCC1 [CBK049794],32.2737
15,O=C(CSc1nnc(-c2ccco2)[nH]1)c1ccc(O)cc1O [CBK264392],104.723
16,Cc1c(C(=O)N(C)CC(C)C)nnn1-c1ccc2ncccc2c1 [CBK305161],100.757
17,O=c1n(-c2ccc(OC(F)(F)F)cc2)ccn1S(=O)(=O)c1ccccc1 [CBK106655],91.4249
18,O=c1[nH]c2c(-c3ccccc3)nnn2c2ccccc12 [CBK288047],91.0456
19,CN(c1ncc(-c2cc3ccccc3o2)cc1C(=O)NCC(F)(F)F)S(C)(=O)=O [CBK106479],116.019
20,CCOC(=O)N1CCC(NC(=O)N2CCCCC2CO)CC1 (stereo not shown) [CBK155991],85.7709
21,CC(C)(C)OC(=O)N1CCC(NCc2ccccn2)CC1 [CBK304603],41.2243
22,Cc1onc(-c2ccccc2)c1C(=O)NCc1ccccc1 [CBK200116],89.7812
